Assay results from PubChem BioAssay AID686978 (National Center for Advancing Translational Sciences (NCATS), 2013).
The whole screen tested about 420,000 compounds, of which about 64,000 (15%) were called active. The inconclusive results got no clear call from the source; some entries with a clear call stand among them for comparison. Calls follow the shape of the dose curve; as a rule, active = well fitted inhibition curve with a large enough effect; inconclusive = small, poorly fitted or top-dose-only effect; inactive = flat fitted curve, though single readings scatter. No potency is given beside an inconclusive call; the fits are too rough.

Assay: qHTS for Inhibitors of human tyrosyl-DNA phosphodiesterase 1 (TDP1): qHTS in cells in absence of CPT; also: nearly all actives have a fitted effect of over 55% in size
Settings: DT40 Tdp1-/- hTDP1 cells, no CPT, ATP luminescence, 48 h; activity change, negative = growth inhibition: at 46.2 µM (top of the series) unless noted
Method in brief: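 Compound effects on proliferation are scored in DT40 Tdp1-/-;hTDP1 cells in the absence of CPT. ATP levels (CellTiter-Glo luminescence) are recorded after a ≥48 hr, 37 °C incubation.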
% is scaled to controls: 0 for no effect and ±100 for the full control effect; potency is read from the fitted curve at half-maximal effect; tags tell the direction and shape of the fitted curve.

| SMILES | Potency | activity change, negative = growth inhibition |
| --- | --- | --- |
| COc1cc(C=C2C(=O)NC(=O)NC2=O)ccc1OCc1ccc([N+](=O)[O-])cc1 | inactive | – |
| COc1ccc(C2CN(C)CC2C(=O)c2ccc(C)cc2)cc1Cl (centres undefined) | inconclusive [inhibitor, partial curve] | – |
| COC(=O)C1=C(c2ccc(F)cc2OCc2ccccc2)C[C@@H]2CC[C@H]1N2C(=O)NC1Cc2ccccc2C1 | active: 25.9 µM | – |
| O=c1c2ccccc2nc(-c2ccco2)n1-c1ccc(Br)cc1 | active: 16.4 µM | – |
| CC1(C)C(C=C(Cl)Cl)C1C(=O)OC(C#N)c1cccc(Oc2ccccc2)c1 (centres undefined) | inconclusive [inhibitor, partial curve] | – |
| O=C(Nc1ccc(Cl)cc1C(=O)c1ccccc1)c1ccc(Br)o1 | inconclusive [inhibitor, partial curve] | – |
| N#CC1=C(N)Oc2c(c(=O)sc3ccccc23)C1c1cccnc1 (centres undefined) | active: 8.2 µM | – |
| CCN(CC)c1ccc(/C=C2\C(=O)NC(=S)N(c3ccc(OC)cc3OC)C2=O)o1 | inconclusive [inhibitor, single point] | – |
| CCn1cc(C(=O)O)c(=O)c2ccc(C)nc21 | inconclusive [inhibitor, single point] | – |
| O=C1/C(=C\c2cc3c(cc2Cl)OCO3)N2CCC1CC2 | inconclusive [inhibitor, single point] | – |
| CCCCN1CC(COCc2ccccc2)Oc2cccc(Oc3ccc(C(C)C)cc3)c2S1(=O)=O (centres undefined) | active: 5.17 µM | – |
| COC(=O)C1=C(c2ccccc2OCc2ccccc2)C[C@@H]2CC[C@H]1N2C(=O)NCc1ccc(Br)cc1 | inconclusive [inhibitor, single point] | – |
| COC(=O)C1=C(c2cccc(C#N)c2)C[C@@H]2CC[C@H]1N2C(=O)NCCO | inactive | – |
| COP(=S)(OC)SCN1C(=O)c2ccccc2C1=O | inconclusive [inhibitor, single point] | – |
| O=C(O)CCC(=O)OC[C@@H](NC(=O)C(Cl)Cl)[C@H](O)c1ccc([N+](=O)[O-])cc1 | inconclusive [inhibitor, single point] | – |
| COC(=O)C1=C(c2ccccc2OCc2ccccc2)C[C@@H]2CC[C@H]1N2C(=O)NCc1ccc([N+](=O)[O-])cc1 | inconclusive [inhibitor, single point] | – |
| COc1ccc(C(SCC(NC(=O)OCc2ccccc2)C(=O)O)c2ccc(OC)cc2)cc1 (centres undefined) | – | inconclusive: 1.05% [inhibitor] |
| OC(CNC1CCCCC1)c1ccccc1 (centres undefined) | inactive | – |
| C[C@@H](Cc1ccccc1)NCCC(c1ccccc1)c1ccccc1 | active: 6.4 µM | – |
| CNC(=O)c1cccn(Cc2cccc(C(F)(F)F)c2)c1=O | inconclusive [inhibitor, single point] | – |
| Cc1ccccc1OCC(=O)N1CCN(CCc2ccccn2)CC1 | inactive | – |
| CC12CN3CN(C1)CC(C)(C3)C2=NO | inactive | – |

| SMILES | Potency | activity change, negative = growth inhibition |
| --- | --- | --- |
| O=c1c2ccccc2nc(-c2ccccc2Cl)n1-c1cccc(O)c1 | inconclusive [inhibitor, partial curve] | – |
| O=[N+]([O-])c1c2ccccc2cc2ccccc12 | inconclusive [inhibitor, partial curve, poor fit] | – |
| COc1ccc(C(=O)C2CCCN(CCO)C2)c(C)c1 (centres undefined) | inconclusive [inhibitor, partial curve] | – |
| CCCN(CCC)C1CCc2ccc(O)cc2C1 (centres undefined) | inactive | – |
| O=C(Cc1ccccc1)N1CCN(Cc2cccc(Br)c2)CC1 | inconclusive [inhibitor, single point] | – |
| Cc1cccc(CC(c2cccc(C)c2)N(C)C)c1 (centres undefined) | inactive | – |
| O=C(NCCc1ccccc1)c1ccc(CSc2nc3cccnc3n2Cc2ccc(F)cc2)cc1 | active: 14.6 µM | – |
| c1cc2c(cc1[C@H]1OCC3C1CO[C@@H]3c1ccc3c(c1)OCO3)OCO2 (some centres undefined) | inconclusive [inhibitor, single point] | – |
| Cc1cccc(OCC(O)CN2CC2)c1 (centres undefined) | active: 6.51 µM | – |
| COc1ccc(N2C(=O)/C(=C/c3ccc(C)o3)C(=O)NC2=S)cc1 | inconclusive [inhibitor, single point] | – |
| Cc1nc2ccccc2c(=O)n1-c1ccncc1 | inactive | – |
| CCn1c(O)c(C=Nc2ccc(S(N)(=O)=O)cc2)c(=O)n(CC)c1=S | inconclusive [inhibitor, single point] | – |
| O=C(O)CC1OCC=C2CN3CCC45C6=CC(=O)C(=O)C([N+](=O)[O-])=C6NC4C1C2CC35 (centres undefined) | active: 11.2 µM | – |
| CNC(C(=O)c1ccccc1)C(OC(C)C)c1ccc(Cl)cc1 (centres undefined) | inconclusive [inhibitor, partial curve] | – |
| O=C1NCN(c2ccccc2)C12CCN(C(CCc1ccccc1)c1nnnn1C1CCCCC1)CC2 (centres undefined) | inconclusive [inhibitor, single point] | – |
| Cc1ccc(NC(=O)CSc2nnc([C@@H](N)Cc3c[nH]c4ccccc34)o2)c(C)c1 | inactive | – |
| COc1ccc(N2C(=O)NC(=O)/C(=C/c3ccc([N+](=O)[O-])s3)C2=O)cc1 | active: 6.51 µM | – |
| CCCC(=O)OC(C(Cl)(Cl)Cl)P(=O)(OC)OC (centres undefined) | – | inconclusive: -30.1% [inhibitor] |
| S=C(NCCc1ccccc1)N1Cc2ccc(Br)cc2-n2nncc2C1 | inconclusive [inhibitor, single point] | – |
| CC(C)(C)c1ccc(O)c(CN2CCN(c3ccccc3)CC2)c1 | inconclusive [inhibitor, single point] | – |
| Cc1ccc2c(c1)Oc1ccccc1N=C2 | – | inconclusive: -34.7% [inhibitor] |
| C[C@H]1CC[C@@H]2[C@@H](C)[C@H]3[C@H](C[C@H]4[C@@H]5CC=C6C[C@@H](O[C@@H]7O[C@H](CO)[C@H](O)[C@H](O[C@@H]8O[C@H](CO)[C@@H](O)[C@H](O)[C@H]8O)[C@H]7O[C@@H]7O[C@@H](C)[C@H](O)[C@@H](O)[C@H]7O)CC[C@]6(C)[C@H]5CC[C@]34C)N2C1 | inconclusive [inhibitor, partial curve] | – |
